Legend:
huIL-15Rβ-6His [1] = molecular target: T1, huIL-15Rβ-6His (human, UniProt P14784 27-239); experiment: ELISA EC50 against P-0234 (IL-15 wild type)
T1 construct: Coated on the ELISA plate; also called IL-15Rβ subunit; huIL-15R/3-6His (so in the source); not shown: 6His tag per the name
T1 sequence (looked up): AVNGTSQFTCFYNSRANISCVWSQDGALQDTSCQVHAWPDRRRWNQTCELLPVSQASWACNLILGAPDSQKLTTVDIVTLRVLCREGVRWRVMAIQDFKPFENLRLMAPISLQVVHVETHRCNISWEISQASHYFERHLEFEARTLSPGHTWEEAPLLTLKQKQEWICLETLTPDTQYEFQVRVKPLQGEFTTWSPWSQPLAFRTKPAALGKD
Experimental: (§1) The binding activity was tested in ELISA assay. Briefly, Nunc Maxisorp (ThermoFisher) plates were coated overnight at 4° C. with huIL-15R/3-6His at 1 μg/well (100 μl/well) in bicarbonate buffer pH 9.4 (ThermoFisher). After washing 3 times with PBS/0.05% Tween20, plates were incubated with SuperBlock (300 μl/well) at room temperature for 2 hrs. to block nonspecific binding. After washing, IL-15 compounds each at 3-fold serial dilutions with blocking buffer were added to the plates (100 μl/well) and incubated at room temperature for 1 hr. After washing, the Fc fusions were detected by 1 hr. incubation at room temperature with a goat anti-human IgG Fc secondary antibody conjugated with horseradish peroxidase (HRP) at 1:5000 dilution in blocking buffer (ThermoFisher) (100 μl/well). After washing, TMB substrate (ThermoFisher) was added (100 ul/well). Plates were sealed and incubated 5-20 min at room temperature in dark. Reaction was stopped by adding 2N sulfuric acid (Ricca Chemical) (50 uL/well) and absorbance was read at 450-590 nm.
(§2) The data strengthened the notion that the S58D substitution in the IL-15 peptide may tune IL-15 into a super-agonist attributed to the enhanced receptor binding activity.

huIL-15Rβ-6His [2] = molecular target: T1, huIL-15Rβ-6His; experiment: ELISA, huIL-15Rβ-6His coated, anti-human IgG Fc-HRP detection
Experimental: as §1, §2

Fold change (huIL-15Rβ-6His [1]): 9 fold | EC50 (huIL-15Rβ-6His [2]): 7.66 nM
B1: P-0361, IL-15i1 ('GS' insertion after N95) in bivalent IL-15/IL-15Rα (non-covalent) Fc fusion format (Fc fusion)
chain 1: [human IgG1 Fc with L234A L235A G237A (EU numbers) not written out]GGGGSGGGGSGGGGSNWVNVISDLKKIEDLIQSMHIDATLYTESDVHPSCKVTAMKCFLLELQVISLESGDASIHDTVENLIILANNSLSSNGNVTESGCKECEELEEKNGSIKEFLQSFVHIVQMFINTS
chain 2: ITCPPPMSVEHADIWVKSYSLYSRERYICNSGFKRKAGTSSLTECVLNKATNVAHWTTPSLKCIRDPALVHQRPAPP

From patent publication US20230048046A1 (CUGENE, published 2023)
